# According to the supplement of paper PMC3334620:
# Whole data set: some 33,000 sequences, median “E-score (-0.5 to 0.5)” near -0.035, cut for the highest 2% near 0.35. The list shows a part of the results.
# Target: T1, Pdr3 (UniProt P33200)
# T1 sequence: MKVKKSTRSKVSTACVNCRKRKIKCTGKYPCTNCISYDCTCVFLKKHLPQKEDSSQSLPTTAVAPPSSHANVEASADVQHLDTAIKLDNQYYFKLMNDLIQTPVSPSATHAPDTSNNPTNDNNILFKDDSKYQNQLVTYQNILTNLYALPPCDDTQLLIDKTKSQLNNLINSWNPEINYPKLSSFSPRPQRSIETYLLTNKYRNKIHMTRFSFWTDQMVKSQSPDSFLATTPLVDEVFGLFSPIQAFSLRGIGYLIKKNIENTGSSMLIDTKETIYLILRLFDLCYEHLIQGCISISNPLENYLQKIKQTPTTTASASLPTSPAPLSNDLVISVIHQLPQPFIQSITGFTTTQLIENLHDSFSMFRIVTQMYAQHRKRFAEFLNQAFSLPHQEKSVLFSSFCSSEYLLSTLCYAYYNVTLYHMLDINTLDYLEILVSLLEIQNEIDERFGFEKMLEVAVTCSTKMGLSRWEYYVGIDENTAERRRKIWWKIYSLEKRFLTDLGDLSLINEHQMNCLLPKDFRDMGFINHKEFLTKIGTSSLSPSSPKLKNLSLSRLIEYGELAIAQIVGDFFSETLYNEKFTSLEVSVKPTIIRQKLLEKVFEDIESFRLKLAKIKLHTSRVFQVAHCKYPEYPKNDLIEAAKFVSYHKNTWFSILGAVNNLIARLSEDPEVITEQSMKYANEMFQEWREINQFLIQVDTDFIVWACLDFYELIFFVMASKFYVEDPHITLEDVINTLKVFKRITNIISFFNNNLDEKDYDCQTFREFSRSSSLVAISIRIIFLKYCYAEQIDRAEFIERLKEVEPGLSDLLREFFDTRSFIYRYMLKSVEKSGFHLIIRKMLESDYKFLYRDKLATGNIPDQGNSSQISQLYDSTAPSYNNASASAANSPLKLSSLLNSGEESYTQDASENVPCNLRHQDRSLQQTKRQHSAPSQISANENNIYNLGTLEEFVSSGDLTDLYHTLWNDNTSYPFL
# Assay: PBM E-score (8-mer binding enrichment) (E-score (-0.5 to 0.5)); higher = stronger / more preferred TF binding; most listed sequences are background and not binding sites
# Settings: protein concentration: 200 nM; construct: GST-full length
# Procedure, shortened: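 Universal all-10-mer Agilent arrays, fresh or stripped once, were converted to double-stranded form by primer extension. GST-tagged yeast transcription factors from PURExpress in vitro transcription/translation, full-length or DNA-binding domain only, were applied at about 100-200 nM and detected with fluorescent anti-GST. After masliner normalisation, the Universal PBM Analysis Suite scored each ungapped eight-base word together with its reverse complement by E-score.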
row,Sequence,PBM E-score
1,CGTAACGA,-0.171
2,CGTTCGCA,-0.185
3,CCGGGTAG,0.354
4,ACTGCGGC,0.119
5,CGCACCCC,0.109
6,TTAGCCAA,-0.0821
7,TAACAGAA,-0.064
8,TAAGTGTA,-0.198
9,GCTGGGAA,0.137
10,ATCTCTCA,0.137
11,GAGAGAAC,-0.0782
12,ACTGGAAT,-0.033
13,CGCAGGGC,-0.0209
14,AATGTTAG,-0.154
15,GCTCCTGA,0.0725
16,CACAAGCG,-0.129
17,CGGTTGCC,0.205
18,CGGAATAG,0.418
19,TATCTTCA,-0.0543
20,CAGTGTAC,-0.0855
21,TAACAATA,0.0358
22,AATCAATG,0.125
23,GGTGCTAA,-0.0417
24,GTGTGAGA,-0.0859
25,AATCTACG,0.024

row,Sequence,PBM E-score
1,CACAACTA,0.154
2,ATGGTTGA,0.0836
3,ACGGCCAC,0.126
4,CGCGTGGC,0.00171
5,AATTCAGG,0.143
6,CTCACAAA,-0.0844
7,AATGTTCA,-0.052
8,CAAGAAGG,-0.0899
9,GTGGACCA,-0.0263
10,CGGGGGCC,0.142
11,CACTCTGC,-0.0918
12,AGACTGAT,-0.197
13,GGTCGGTA,0.0234
14,CGTCAAGC,-0.118
15,GTCCGTGA,0.276
16,AGGACTAG,-0.143
17,GATGCACC,-0.0532
18,GATTGCCC,-0.0857
19,CGTTTGTC,0.032
20,CTAACCAC,-0.258
21,ACTGCTTC,0.013
22,TATCGGAA,0.419
23,GTCGCTTA,0.0381
24,GTGCCCTA,-0.236
25,AATCCCAG,-0.0498

row,Sequence,PBM E-score
1,CTAGCGAC,-0.122
2,AGTCCATC,0.0496
3,GAGTACGA,0.00886
4,GCCATGGA,-0.0113
5,TCGGCTCA,0.0148
6,GCAGTATA,0.0934
7,CGTCGCGA,0.207
8,ACCTGGCT,-0.183
9,AACATGAC,-0.0926
10,ATCGCGGG,0.186
11,AGTCTGAG,-0.351
12,AGTTAAGG,-0.234
13,ACATAGCA,-0.0892
14,ACTGCTCG,0.0116
15,CTATTTAA,0.156
16,TAGGAATA,-0.119
17,GTCTTTAA,-0.2
18,CCGTATAG,-0.13
19,CTACGTGC,-0.18
20,ATTTTATG,0.0598
21,CCAGTACG,-0.132
22,GCAGAAGA,-0.161
23,AGACATAA,-0.0309
24,CGGGCCGA,0.208
25,CCGAATGC,0.234

row,Sequence,PBM E-score
1,TCCTAGCA,-0.24
2,TTCAAGAA,-0.0654
3,GGTTGTAA,-0.263
4,AGTCAGGA,-0.142
5,AGGGAAGC,-0.0866
6,TCGAGAAA,-0.197
7,GCGGGGAA,0.226
8,CTGCCAAG,-0.252
9,AGAAAAAG,-0.0302
10,GAAGGCCC,-0.0246
11,CCTTCCCG,0.208
12,CGTCTGAA,-0.159
13,AATTTTAA,-0.0299
14,GGTTCGCA,-0.0981
15,CTGGCTTA,-0.249
16,CTGTACCC,0.0892
17,GGTAAAGA,-0.0497
18,AATGAGTA,0.149
19,GCGGTGCA,-0.177
20,ATAGCCAA,0.128
21,ATTAAATG,0.139
22,AACTGGGT,-0.0669
23,AAATGCCC,-0.0768
24,ACCTTCCG,0.394
25,ACGATTTG,-0.0965

row,Sequence,PBM E-score
1,CTATTAGC,0.02
2,CCAAGTTA,-0.117
3,TTCCGAAA,0.41
4,ATTTAATC,0.235
5,GGAATAAA,0.194
6,CGGACCTA,0.25
7,GGGTCCAA,-0.0383
8,ATCATAAA,-0.0535
9,TAAGTACA,-0.172
10,ACACTCCC,0.0199
11,CATTTTCA,0.148
12,CAGGAATA,0.0568
13,GGTCCGTA,0.293
14,ATCAGCAG,-0.0556
15,ACAGCGTC,0.11
16,CACTGGAG,-0.197
17,AGGAGCCT,-0.221
18,ACATCCGG,0.378
19,GCTTGGGA,-0.0396
20,CGGACGCC,0.283
21,AATGGCCT,0.179
22,GGATGGAA,0.167
23,AGGCCTGG,-0.166
24,ACACAGCG,0.185
25,TAGTCCAA,-0.193

row,Sequence,PBM E-score
1,CGTTCCAC,0.104
2,AGTACTGG,-0.222
3,ACATCGTA,-0.0633
4,ATTAAAGA,0.0813
5,ATGTTTGC,-0.0795
6,TCGTTCCA,-0.253
7,ACATACGA,-0.107
8,TCCGTGCA,0.351
9,GTGATGGA,0.0126
10,CTTAATTA,-0.0232
11,CAGACTAC,-0.207
12,CAACCTTA,-0.259
13,ATAGACTC,-0.295
14,CAAGCCAA,-0.0388
15,GAGTAGCA,0.0643
16,AGTACAAG,-0.104
17,AACACCAA,-0.203
18,ATCATTTC,0.174
19,ATACAACG,0.0691
20,CTAAAACC,0.0462
21,CGGCCTAG,0.0451
22,ACTACTCA,-0.154
23,ACGTACGT,-0.368
24,ACCGAGCG,0.176
25,CGCGTCGA,0.188

row,Sequence,PBM E-score
1,ACAGCACG,0.191
2,AAAGGCAC,0.0624
3,AAAGGGTA,-0.0997
4,AAGCGCCC,0.115
5,TCAAATCA,-0.266
6,CGAGTCTA,-0.354
7,CAAGGGGA,-0.103
8,GAACATTA,0.0236
9,ATTGCCTG,-0.0498
10,AGGGCCTG,-0.195
11,CCATCACA,-0.0736
12,AACTGATG,-0.0174
13,CACGGATG,0.284
14,AGTATTAG,0.109
15,AGCAACCA,0.022
16,CGGTGACC,-0.182
17,AAATCGGC,0.279
18,AAAAACCT,0.0387
19,CTGCCCGA,0.117
20,AAAGAGCA,0.0111
21,GTTGCTCA,-0.158
22,GAGTTTCC,0.174
